Assay results: the supplement of paper PMC8728848
Some of the results follow.

How the values were obtained:
Test in all cases: glycan array binding signal (z-score within array); higher = stronger binding
Conditions in all cases: glycan notation: IUPAC condensed, linker removed
Neu5Ac(a2-8)Neu5Ac = molecular target: Neu5Ac(a2-8)Neu5Ac
How it was run: (§1)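 From the Consortium for Functional Glycomics database, 3228 arrays were curated, keeping only those whose protein sequence was available. Binding is given as a within-array Z-score averaged across arrays sharing a protein sequence and across linkers. Negative Z-scores can be read as non-binding.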

[1] = molecular target: Neu5Ac(a2-8)Neu5Ac(a2-3)Gal(b1-3)GalNAc(b1-4)[Neu5Ac(a2-3)]Gal(b1-4)Glc
How it was run: as §1

[2] = molecular target: Neu5Ac(a2-8)Neu5Ac(a2-3)Gal(b1-3)GalNAc(b1-4)[Neu5Ac(a2-8)Neu5Ac(a2-3)]Gal(b1-4)Glc
How it was run: as §1

[3] = molecular target: Neu5Ac(a2-8)Neu5Ac(a2-3)Gal(b1-4)Glc
How it was run: as §1

[4] = molecular target: Neu5Ac(a2-8)Neu5Ac(a2-3)Gal(b1-4)GlcNAc
How it was run: as §1

[5] = molecular target: Neu5Ac(a2-8)Neu5Ac(a2-3)[Gal(b1-3)GalNAc(b1-4)]Gal(b1-4)Glc
How it was run: as §1

[6] = molecular target: Neu5Ac(a2-8)Neu5Ac(a2-3)[GalNAc(b1-4)]Gal(b1-4)Glc
How it was run: as §1

[7] = molecular target: Neu5Ac(a2-8)Neu5Ac(a2-8)Neu5Ac
How it was run: as §1

[8] = molecular target: Neu5Ac(a2-8)Neu5Ac(a2-8)Neu5Ac(a2-3)Gal(b1-4)Glc
How it was run: as §1

[9] = molecular target: Neu5Ac(a2-8)Neu5Ac(a2-8)Neu5Ac(a2-3)[Gal(b1-3)GalNAc(b1-4)]Gal(b1-4)Glc
How it was run: as §1

[10] = molecular target: Neu5Ac(a2-8)Neu5Ac(a2-8)Neu5Ac(a2-3)[GalNAc(b1-4)]Gal(b1-4)Glc
How it was run: as §1

[11] = molecular target: Neu5Ac(a2-8)Neu5Ac(a2-8)Neu5Ac(a2-8)Neu5Ac(a2-3)[GalNAc(b1-4)]Gal(b1-4)Glc
How it was run: as §1

[12] = molecular target: Neu5Ac(a2-8)Neu5Gc(a2-3)Gal(b1-4)GlcNAc
How it was run: as §1

[13] = molecular target: Neu5Ac(b2-6)Gal(b1-4)GlcNAc
How it was run: as §1

Neu5Ac(b2-6)GalNAc = molecular target: Neu5Ac(b2-6)GalNAc
How it was run: as §1

[14] = molecular target: Neu5Ac9Ac(a2-3)Gal(b1-3)GlcNAc
How it was run: as §1

[15] = molecular target: Neu5Ac9Ac(a2-3)Gal(b1-4)GlcNAc
How it was run: as §1

[16] = molecular target: Neu5Ac9Ac(a2-6)Gal(b1-4)GlcNAc
How it was run: as §1

[17] = molecular target: Neu5Gc(a2-3)Gal(b1-3)GlcNAc
How it was run: as §1

[18] = molecular target: Neu5Gc(a2-3)Gal(b1-3)[Fuc(a1-4)]GlcNAc
How it was run: as §1

Neu5Gc(a2-3)Gal(b1-4)Glc = molecular target: Neu5Gc(a2-3)Gal(b1-4)Glc
How it was run: as §1

[19] = molecular target: Neu5Gc(a2-3)Gal(b1-4)GlcNAc
How it was run: as §1

[20] = molecular target: Neu5Gc(a2-3)Gal(b1-4)GlcNAc(b1-3)Gal(b1-4)GlcNAc(b1-2)Man(a1-3)[Neu5Gc(a2-3)Gal(b1-4)GlcNAc(b1-3)Gal(b1-4)GlcNAc(b1-2)Man(a1-6)]Man(b1-4)GlcNAc(b1-4)GlcNAc
How it was run: as §1

[21] = molecular target: Neu5Gc(a2-3)Gal(b1-4)[Fuc(a1-3)]GlcNAc
How it was run: as §1

[22] = molecular target: Neu5Gc(a2-6)Gal(b1-4)GlcNAc
How it was run: as §1

Neu5Gc(a2-6)GalNAc = molecular target: Neu5Gc(a2-6)GalNAc
How it was run: as §1

[23] = molecular target: Neu5Gc(a2-8)Neu5Ac(a2-3)Gal(b1-4)GlcNAc
How it was run: as §1

[24] = molecular target: Neu5Gc(a2-8)Neu5Gc(a2-3)Gal(b1-4)GlcNAc
How it was run: as §1

[25] = molecular target: Neu5Gc(a2-8)Neu5Gc(a2-3)Gal(b1-4)GlcNAc(b1-3)Gal(b1-4)GlcNAc
How it was run: as §1

[26] = molecular target: Neu5Gc(a2-8)Neu5Gc(a2-6)Gal(b1-4)GlcNAc
How it was run: as §1

[27] = molecular target: Neu5Gc(b2-6)Gal(b1-4)GlcNAc
How it was run: as §1

B1: PX9937J-pdi-523-26-523 (Parabacteroides distasonis) (protein)
chain: EPVSSISDANYWKSPDLFKAFNIGLHGLLRSQSSYNIFVLGEPRSDIYGDQPFGGEATQGVERFSYNTINAEFTGISNFANFYTTLNQINLMIRRTNETDLLGEAEKNYYLGQAYGLRAYIYFHLLRSWGDVIITTEPTLGSELDISHLDKAASPASEVMDLIKKDIDASEKAFGGDYSYKQGKCYWSKPATLMLKGEVYLWSGRQMGGGTGDYTVAKTALQDLQQNGNLKLQEKFTDVFSFNNKENSEMIFALHSGKEDDFMMWRDYNWRNNMVPQREYMAGYCDETGTPFLEIPGYNLQGLMRYQVKKDHYLKSFREGDTRLKGTLKAVYKKHEDGTLEYIAPIQYKFQGTTLEGSNERSWYDDYPIYRYADALLLLAEAKALLGEDPSTEINAVRERAYGSEYFNAHKNEVAYPNDKGSFYNDNPFEAGDENVMEAILKERLREFFFEGKRWYDLRRFGKDYVLKYTTAQESRLLWPINEGALTNNPALKQTPGY
**Q.** For B1, which “glycan array binding signal (z-score)” value (Neu5Ac(a2-8)Neu5Ac) is on record?
**A.** -0.218

**Q.** And the “glycan array binding signal (z-score)” value [1]?
**A.** -0.149

**Q.** And the “glycan array binding signal (z-score)” value [2]?
**A.** -0.08

**Q.** What about the “glycan array binding signal (z-score)” value [3] of the same binder?
**A.** -0.56

**Q.** What about the “glycan array binding signal (z-score)” value [4] of the same binder?
**A.** -0.261

**Q.** And the “glycan array binding signal (z-score)” value [5]?
**A.** -0.125

**Q.** And the “glycan array binding signal (z-score)” value [6]?
**A.** 0.126

**Q.** And the “glycan array binding signal (z-score)” value [7]?
**A.** -0.094

**Q.** What about the “glycan array binding signal (z-score)” value [8] of the same binder?
**A.** -0.364

**Q.** What about the “glycan array binding signal (z-score)” value [9] of the same binder?
**A.** -0.023

**Q.** What about the “glycan array binding signal (z-score)” value [10] of the same binder?
**A.** -0.5

**Q.** And the “glycan array binding signal (z-score)” value [11]?
**A.** -0.024

**Q.** What about the “glycan array binding signal (z-score)” value [12] of the same binder?
**A.** 9.17

**Q.** What about the “glycan array binding signal (z-score)” value [13] of the same binder?
**A.** 0.532

**Q.** And the “glycan array binding signal (z-score)” value (Neu5Ac(b2-6)GalNAc)?
**A.** -0.668

**Q.** And the “glycan array binding signal (z-score)” value [14]?
**A.** -0.551

**Q.** And the “glycan array binding signal (z-score)” value [15]?
**A.** -0.44

**Q.** And the “glycan array binding signal (z-score)” value [16]?
**A.** 0.254

**Q.** And the “glycan array binding signal (z-score)” value [17]?
**A.** -0.523

**Q.** What about the “glycan array binding signal (z-score)” value [18] of the same binder?
**A.** -0.62

**Q.** What about the “glycan array binding signal (z-score)” value (Neu5Gc(a2-3)Gal(b1-4)Glc) of the same binder?
**A.** -0.703

**Q.** What about the “glycan array binding signal (z-score)” value [19] of the same binder?
**A.** -0.198

**Q.** What about the “glycan array binding signal (z-score)” value [20] of the same binder?
**A.** -0.317

**Q.** What about the “glycan array binding signal (z-score)” value [21] of the same binder?
**A.** -0.568

**Q.** And the “glycan array binding signal (z-score)” value [22]?
**A.** -0.357

**Q.** What about the “glycan array binding signal (z-score)” value (Neu5Gc(a2-6)GalNAc) of the same binder?
**A.** 0.093

**Q.** And the “glycan array binding signal (z-score)” value [23]?
**A.** -0.332

**Q.** What about the “glycan array binding signal (z-score)” value [24] of the same binder?
**A.** -0.415

**Q.** What about the “glycan array binding signal (z-score)” value [25] of the same binder?
**A.** -0.355

**Q.** What about the “glycan array binding signal (z-score)” value [26] of the same binder?
**A.** -0.389

**Q.** What about the “glycan array binding signal (z-score)” value [27] of the same binder?
**A.** -0.221
